SMILES strings stand for the structures. Among all 310,000 compounds or so, about 2,200 (0.71%) showed an effect of 50% or more. The effect is printed as a negative number. Some of the results follow.

human ether-à-go-go-related gene (hERG) potassium channel, sequence (Q12809 whole entry, looked up): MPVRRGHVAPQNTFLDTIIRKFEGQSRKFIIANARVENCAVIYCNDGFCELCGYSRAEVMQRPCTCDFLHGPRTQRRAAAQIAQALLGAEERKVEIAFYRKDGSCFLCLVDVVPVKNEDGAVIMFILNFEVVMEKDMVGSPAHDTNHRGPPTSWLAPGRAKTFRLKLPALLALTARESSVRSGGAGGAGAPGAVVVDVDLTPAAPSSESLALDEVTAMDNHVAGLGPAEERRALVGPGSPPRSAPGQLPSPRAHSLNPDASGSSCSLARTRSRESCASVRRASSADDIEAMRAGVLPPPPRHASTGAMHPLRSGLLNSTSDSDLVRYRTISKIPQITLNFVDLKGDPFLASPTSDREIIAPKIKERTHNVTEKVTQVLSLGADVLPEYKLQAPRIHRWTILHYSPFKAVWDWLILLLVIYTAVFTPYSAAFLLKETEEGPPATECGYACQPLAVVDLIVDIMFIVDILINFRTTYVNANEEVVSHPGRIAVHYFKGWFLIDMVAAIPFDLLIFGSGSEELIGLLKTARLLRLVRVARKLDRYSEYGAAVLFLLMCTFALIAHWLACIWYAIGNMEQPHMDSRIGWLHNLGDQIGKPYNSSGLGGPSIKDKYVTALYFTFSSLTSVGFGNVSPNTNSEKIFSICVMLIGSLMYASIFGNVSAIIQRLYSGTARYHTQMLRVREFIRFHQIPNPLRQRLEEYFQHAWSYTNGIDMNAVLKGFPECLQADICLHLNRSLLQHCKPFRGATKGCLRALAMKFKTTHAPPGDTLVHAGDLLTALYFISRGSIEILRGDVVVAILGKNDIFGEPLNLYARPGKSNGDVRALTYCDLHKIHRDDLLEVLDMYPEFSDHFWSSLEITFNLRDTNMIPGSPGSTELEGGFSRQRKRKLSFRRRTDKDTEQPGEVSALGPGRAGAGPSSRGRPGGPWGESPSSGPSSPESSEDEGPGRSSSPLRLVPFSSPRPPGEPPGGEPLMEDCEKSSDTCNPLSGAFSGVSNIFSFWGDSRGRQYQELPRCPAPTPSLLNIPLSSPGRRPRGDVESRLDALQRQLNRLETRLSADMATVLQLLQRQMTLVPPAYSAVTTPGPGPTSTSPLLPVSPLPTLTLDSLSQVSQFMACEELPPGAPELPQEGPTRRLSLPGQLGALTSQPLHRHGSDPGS

This test has as its target human ether-à-go-go-related gene (hERG) potassium channel (human, UniProt Q12809). In words: primary screen, population patch clamp on CHO cells stably expressing hERG.
As to `CCN(CC)CCn1c2c(c(SCC(=O)Nc3cc(C)ccc3C)nc1=O)CCC2`, the “hERG current change (%, negative = inhibition) at 1uM” value is recorded as -19.8%.
In the case of `CC(C)CC1(C)NC(=O)N(CCN2C(=O)c3ccccc3C2=O)C1=O` (stereo not shown) it was 16.9%; in that of `COc1ccc(C(=O)N/C=C/n2cnc3cc(C(F)(F)F)ccc32)cc1`, 5.92%; in that of `CC1CC2(C)Oc3ccccc3C3OCC1(CO)C(C)C32` (stereo not shown), 2.37%.
Next, `COc1ccc(S(=O)(=O)NCCOc2ccccc2)cc1F`: 10.1%; `Cc1cc(C(=O)COC(=O)CNC(=O)c2ccccc2)c(C)n1CC1CCCO1` (stereo not shown): 13.2%.
In the case of `COC(=O)C1=C(c2cc3ccccc3o2)C[C@@H]2CC[C@H]1N2C(=O)N1CCC(C)CC1` it was 8.42%; in that of `COc1cccc(/C=c2\s/c(=C/C(=O)c3ccc(C)cc3)[nH]c2=O)c1OC`, -3.87%; in that of `Cc1ccc(C(=O)CC(=O)c2ccc(C)cc2O)cc1`, 16.5%.
For `CCOc1ccc(CCNC(=O)COc2cccc(-n3cnnn3)c2)cc1OCC`, the “hERG current change (%, negative = inhibition) at 1uM” value is 5.06%.
In the case of `COc1ccc(C2C3=C(CCCC3=O)Nc3ccc4ncccc4c32)cc1OC` (stereo not shown) it was 5.93%; in that of `CCCc1nn(C)c(C(=O)Nc2ccc(Cl)cc2)c1Cl`, 5.89%.
In the case of `CCOCCCNC(=O)c1ccccc1SC` it was -5.33%; in that of `Cc1ccc(NC(=O)CSc2nc(=O)cc(N)n2-c2ccccc2)cc1`, 15.2%; in that of `CSc1nc2c(cc1C#N)CCCCC2`, 10.5%.
In the case of `CCCCN(CCCC)c1ncnc2nc[nH]c12` it was 6.68%; in that of `CN(C)CCNC=C(C(=O)Nc1ccc(Cl)cc1Cl)C(=O)Nc1ccc(Cl)cc1Cl`, 8.97%.
As to `COC(=O)c1cc(C(=O)OC)n(Cc2ccc(C)cc2)c1C`, the “hERG current change (%, negative = inhibition) at 1uM” value worked out at 5.63%.
Next, `CN(c1ccc(Cl)cc1)c1cc(=O)n(C)c2ccccc12`: 1.74%; `CCCNC(=O)C1CC(=O)N(c2ccc(OCC)cc2)C1` (stereo not shown): 2.85%.
In the case of `Cc1ccc2oc(C(=O)N(C)Cc3cnccn3)c(C)c2c1` it was 7.3%.
Next, `FC(F)C(F)(F)c1cc(-c2ccccc2)n[nH]1`: 12.6%; `CCOc1cc(/C=C(\C#N)C(=O)NCc2cccnc2)ccc1O`: 5.63%.
For `COc1ccccc1CNC(=O)C1CCN(S(=O)(=O)c2ccc(N3CCCC3=O)cc2)CC1`, the “hERG current change (%, negative = inhibition) at 1uM” value came to 11.6%.
In the case of `COc1ccc(C(CNS(=O)(=O)c2ccc(F)cc2)N2CCN(C)CC2)cc1` (stereo not shown) it was 13.1%; in that of `O=C1CC(N2CCN(c3nc4ccccc4s3)CC2)C(=O)N1Cc1cccs1` (stereo not shown), -12.8%; in that of `c1ccc(N2CCN(c3ccccc3)C2c2ccncc2)cc1`, 5.52%.
Consider `Nn1c(COc2ccccc2)nnc1SCC(=O)O`, for which the “hERG current change (%, negative = inhibition) at 1uM” value amounted to 7.83%.
Next, `COc1cc(CC(=O)N2CCc3ccccc32)cc(OC)c1OC`: 10.7%.
On to `CCn1c(=NC(=O)CS(=O)(=O)c2ccccc2)sc2cccc(OC)c21`, for which the “hERG current change (%, negative = inhibition) at 1uM” value is given as 1.27%.
Next, `CCOc1ccc(CCNC(=O)CSc2nnnn2C)cc1OCC`: 5.77%.
In the case of `CCCSc1nc2c(c(=O)n1CC)SC(C)C2` (stereo not shown) it was 9.66%; in that of `CCOC(=O)/C(C(C)=O)=C1\OC(=O)c2ccccc21`, 8.9%; in that of `CNC(=O)CN(C)S(=O)(=O)c1ccc(OC)c(Cl)c1`, 14.3%.
Next, `CCCC1Cc2c(sc3nc(SC)nc(N)c23)CO1` (stereo not shown): 10.7%.
Take `CCOC(=O)c1cccc(-c2ccc(C=O)o2)c1`: the “hERG current change (%, negative = inhibition) at 1uM” value was found to be 5.37%.
With `CCN(CC)CCCNC(=O)C(C)n1c2ccccc2c2nc(=O)cc(C)n21` (stereo not shown), the “hERG current change (%, negative = inhibition) at 1uM” value is reported as 12.7%.
In the case of `CCN(CC)S(=O)(=O)c1cccc(-c2cn3cccnc3n2)c1` it was -5.4%.
Next, `CCN(CC)S(=O)(=O)c1cc(C(=O)O)ccc1Cl`: 11.2%.
Next, `O=C1CCC(=O)N1c1ccc(S(=O)(=O)Nc2ccc(Br)cc2)cc1`: 14.7%; `CC(=O)C1=C(O)C(=O)N(c2nccs2)C1c1ccccc1` (stereo not shown): 5%; `CCCOc1ccc(/C=C/c2[nH]c(=O)[nH]c(=O)c2[N+](=O)[O-])cc1OCC`: 6.12%.
For `CC(C)CNC(=O)CO/N=C/c1ccccc1Cl`, the “hERG current change (%, negative = inhibition) at 1uM” value is reported as -0.913%.
Consider `COc1ccc(S(=O)(=O)N2N=C(c3cccc(NS(C)(=O)=O)c3)CC2c2ccco2)cc1` (stereo not shown), for which the “hERG current change (%, negative = inhibition) at 1uM” value is recorded as 16.4%.
In the case of `Cc1noc(C)c1COc1cccc(C(=O)Nc2ccc(OCc3ccccc3)cc2)c1` it was 16.4%.
Next, `COC(=O)c1c(-c2ccccc2)csc1NC1=NS(=O)(=O)c2ccccc21`: 12.3%; `O=C(N/N=C/c1ccc(O)c2ccccc12)c1cccnc1`: 17%.
Next, `Cc1ccc(N(CC(=O)N2CCOCC2)S(C)(=O)=O)cc1Cl`: 4.32%.
On to `CC(=O)NC(Cc1cc(C)ccc1C)C(=O)N1CCN(C(=O)c2ccccc2Br)CC1` (stereo not shown), for which the “hERG current change (%, negative = inhibition) at 1uM” value was 11.9%.
Next, `O=C(N/N=C/c1ccccc1OC(=O)N1CCOCC1)c1cccs1`: 18.9%; `O=C1CC(c2ccccc2)Cc2nc3nc(C(F)(F)F)nn3cc21` (stereo not shown): 6.29%; `O=C(NCCCO)c1c(O)c2cccc3c2n(c1=O)CCC3`: 10.6%.
On to `O=C(CN1CCN(Cc2ccc(F)cc2Cl)C1=O)NCCCN1CCOCC1`, for which the “hERG current change (%, negative = inhibition) at 1uM” value is reported as 2.42%.
In the case of `CCn1c(CNC(=O)Cc2ccc(OC)cc2)nnc1SCC(=O)Nc1nccs1` it was -5.49%; in that of `C/C(=N\S(=O)(=O)c1ccc(C)cc1)Nc1cc(C(C)C)c(O)cc1C`, 6.13%.
Next, `CC(C)c1ccc(/C=C/C(=O)Nc2nn[nH]n2)cc1`: 11.1%.
As for `N/C(=N\OC(=O)c1cc(-c2ccccc2)nc2ccccc12)c1ccncc1`, the “hERG current change (%, negative = inhibition) at 1uM” value is listed as 8.01%.
Next, `CCOc1ccc(/C(=N\O)C(C)NO)cc1` (stereo not shown): 5.47%; `O=C1CC(c2c(F)cccc2Cl)C(n2cncn2)C(O)=C1C1NCCc2ccccc21` (stereo not shown): 8.64%.
Regarding `Cc1ccc(S(=O)(=O)Nc2cc(C)c(O)cc2C)cc1`, the “hERG current change (%, negative = inhibition) at 1uM” value is 11.2%.
In the case of `C=CCN(c1ccccc1)S(=O)(=O)c1cc2c(cc1C)N(C)CCO2` it was 1.53%; in that of `COc1cc(Cl)cc(C2NC(=S)NC(c3ccccc3)=C2C(C)=O)c1OCC(=O)O` (stereo not shown), 11%; in that of `CCOC(=O)C1=C(C)N(C)C(=O)NC1c1c(O)ccc2ccccc12` (stereo not shown), 13.3%.
In the case of `C#CCOCCOCCOCCNc1nc(N2CCN(C(=O)[C@H]([C@@H](C)CC)n3cc(CCCC[NH3+])nn3)CC2)nc(N2CCN(C(=O)[C@H](CCCC[NH3+])n3cc(CCC(=O)O)nn3)CC2)n1.[Cl-]` it was 3.88%; in that of `CC(=O)Nc1ccc(S(=O)(=O)N2CCN(c3cnn(C)c(=O)c3Cl)CC2)cc1`, 9.83%.
In the case of `COC(=O)[C@@]1(Cc2ccc(F)cc2)[C@H]2c3cc(C(=O)N(C)C)n(Cc4ccc(OC(F)(F)F)cc4)c3C[C@H]2CN1C(=O)c1ccccc1` it was 5.35%; in that of `Cc1ccc(C(=O)Nc2nc(=O)n(C(=O)c3ccccc3C)s2)cc1`, 13.8%.
In the case of `C=CCn1c(C(C)NC(=O)CC)nc2ccccc21` (stereo not shown), the “hERG current change (%, negative = inhibition) at 1uM” value was 11.1%.
As to `Cc1cc(C(C)(C)C)ccc1OCCN(C)C`, the “hERG current change (%, negative = inhibition) at 1uM” value is listed as -15.1%.
In the case of `COc1ccc(CCC(=O)Nc2ncc(C)s2)cc1OC`, the “hERG current change (%, negative = inhibition) at 1uM” value was determined as 9.05%.
In the case of `CCOC(=O)N1CCC(NC(=O)c2oc3c(F)cccc3c2C)CC1` it was 6.56%; in that of `COc1ccccc1C1(O)CCN(C(=O)c2cccs2)CC1`, 9.98%; in that of `CCc1nc(N=Nc2c(O)[nH]c3ccccc23)c2c3c(sc2n1)CCC3`, 15.5%.
As for `Cc1cccc(C)c1NC(=O)C(Cl)=C(Cl)Cl`, the “hERG current change (%, negative = inhibition) at 1uM” value is on record as -0.915%.
In the case of `O=C(NCCCN1CCCC1=O)c1sc2ccccc2c1Cl` it was 8.01%.
`O=[N+]([O-])/C=C/c1cn(Cc2ccc(F)cc2)c2ccccc12`: the “hERG current change (%, negative = inhibition) at 1uM” value turned out to be 15.8%.
As for `CC(=O)C1=C(c2ccccc2)OC(N)=C(C#N)C1c1ccccc1C` (stereo not shown), the “hERG current change (%, negative = inhibition) at 1uM” value is reported as 5.18%.
In the case of `COc1ccc(NC(=O)CCS(=O)(=O)c2ccccc2Cl)cc1S(=O)(=O)Nc1ccc(Cl)cc1` it was 10.7%; in that of `CC(C)OC(=O)C(CC(=O)O)NCc1ccccc1` (stereo not shown), 3.06%.
In the case of `COc1ccc(Nc2ncnc3scc(-c4ccc(OC)cc4)c23)cc1` it was 3.43%; in that of `O=C1CCC2c3ccc4ccccc4c3CCN12` (stereo not shown), 10.7%.
Next, `CC(C)Nc1c([N+](=O)[O-])c(=O)oc2ccccc12`: 14.1%.
On to `CCOc1ccc2nc(N3CCCC(C(=O)NCCCN4CC(C)CC(C)C4)C3)sc2c1` (stereo not shown), for which the “hERG current change (%, negative = inhibition) at 1uM” value is recorded as -17.7%.
Turning to `CCOC(=O)Cn1nnnc1C`, the “hERG current change (%, negative = inhibition) at 1uM” value is listed as 9.62%.
In the case of `Br.NCCCC(=O)OC1N=C(c2ccccc2Cl)c2cc(Br)ccc2NC1=O` (stereo not shown) it was 10.4%; in that of `CCCCCCn1c(O)c(C(C)=NC)c(=O)[nH]c1=O`, 11%; in that of `NCCc1ccccn1`, 8.25%.
Next, `Cc1cc(Cl)c(S(=O)(=O)Nc2ccc(S(=O)(=O)N3CCOCC3)cc2)cc1OCC(N)=O`: 14.7%.
In the case of `O=C(Oc1c(Cl)cc(Cl)c2cccnc12)c1cccs1`, the “hERG current change (%, negative = inhibition) at 1uM” value is given as 8.02%.
Next, `COc1ccc([N+](=O)[O-])cc1CSc1ccccn1`: 4.48%; `CCOC(=O)CSc1ncc(-c2ccccc2)cn1`: -1.79%.

These data come from article PMC4336329 (PLoS ONE, 2015).
